The whole screen tested about 310,000 compounds, of which about 14,000 (4.5%) showed an effect of 50% or more. The effect is printed as a negative number. The list shows a part of the results.
target: human ether-à-go-go-related gene (hERG) potassium channel (human, UniProt Q12809); test: primary screen, population patch clamp on CHO cells stably expressing hERG
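Further: peak tail current of the secondary pulse compared with the same well before compound.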

Chain of human ether-à-go-go-related gene (hERG) potassium channel (Q12809 whole entry, looked up): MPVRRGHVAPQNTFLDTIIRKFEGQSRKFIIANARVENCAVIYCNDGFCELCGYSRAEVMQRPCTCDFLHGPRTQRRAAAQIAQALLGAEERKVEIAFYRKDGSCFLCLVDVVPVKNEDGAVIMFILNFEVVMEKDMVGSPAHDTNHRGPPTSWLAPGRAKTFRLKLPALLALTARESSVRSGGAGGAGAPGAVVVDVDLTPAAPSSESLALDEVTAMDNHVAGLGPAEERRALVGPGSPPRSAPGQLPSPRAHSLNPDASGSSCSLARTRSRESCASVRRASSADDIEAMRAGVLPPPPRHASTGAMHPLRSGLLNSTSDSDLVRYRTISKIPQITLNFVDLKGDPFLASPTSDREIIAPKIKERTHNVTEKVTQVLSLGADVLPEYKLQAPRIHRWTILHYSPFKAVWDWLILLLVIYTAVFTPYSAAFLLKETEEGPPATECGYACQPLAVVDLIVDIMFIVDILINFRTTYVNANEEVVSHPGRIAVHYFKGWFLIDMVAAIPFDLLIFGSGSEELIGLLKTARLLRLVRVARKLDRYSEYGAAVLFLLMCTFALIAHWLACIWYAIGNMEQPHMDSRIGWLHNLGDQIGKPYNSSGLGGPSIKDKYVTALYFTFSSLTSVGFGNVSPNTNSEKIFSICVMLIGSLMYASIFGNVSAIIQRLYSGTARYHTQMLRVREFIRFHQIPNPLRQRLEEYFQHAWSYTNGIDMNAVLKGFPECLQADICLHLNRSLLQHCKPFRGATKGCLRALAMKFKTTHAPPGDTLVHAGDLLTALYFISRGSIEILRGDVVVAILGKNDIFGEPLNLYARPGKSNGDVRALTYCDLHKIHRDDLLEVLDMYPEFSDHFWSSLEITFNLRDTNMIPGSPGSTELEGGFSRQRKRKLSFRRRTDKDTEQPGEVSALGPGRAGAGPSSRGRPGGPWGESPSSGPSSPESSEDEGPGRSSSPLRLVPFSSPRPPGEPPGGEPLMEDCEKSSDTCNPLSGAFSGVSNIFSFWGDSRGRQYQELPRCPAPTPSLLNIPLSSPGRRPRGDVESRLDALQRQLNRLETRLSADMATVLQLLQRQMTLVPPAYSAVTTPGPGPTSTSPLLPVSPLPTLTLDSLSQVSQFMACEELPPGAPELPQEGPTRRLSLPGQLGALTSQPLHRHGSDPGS

Row | SMILES | hERG current change (%, negative = inhibition) at 10uM [%]
1 | COc1ccccc1OCc1ccc(C(=O)N2CCN(C)CC2)o1 | -15.2
2 | NCCCC[C@H]1CNC(=S)N1CC1CCCCC1 | 20.6
3 | CCOc1nc(C)cc(COC)c1C(N)=O | 1.32
4 | Cc1[nH]c(=S)c(C#N)c(C)c1CC(=O)c1ccc(Br)cc1 | 10.7
5 | C=CCN(CC=C)CCOc1ccc2ccccc2c1.O=C(O)C(=O)O | -28
6 | CCCn1nnc(NC(=S)NC(=O)c2cccs2)n1 | 0.0611
7 | COc1cc(/C=N/NC(=O)C(Cc2c[nH]c3ccccc23)NC(=O)OCc2ccccc2)cc([N+](=O)[O-])c1O (centres unmarked) | -0.112
8 | COc1ccc(N2C(=O)[C@@H]3C(c4cccnc4)=NO[C@@H]3C2=O)cc1 | 10.8
9 | N=c1oc2ccc3ccccc3c2cc1-c1nc(-c2ccccc2)cs1 | 1.27
10 | O=CN1CCN(C(=O)c2cc3cc(Cl)ccc3[nH]2)CC1 | -12
11 | CS(=O)(=O)N(CC(=O)NC1CCCC1)c1cccc(F)c1 | -12
12 | COc1cccc(-n2nnc3c(=O)n(CC(=O)Nc4cc(C)on4)cnc32)c1 | 28.7
13 | CSc1cccc(NC(=S)N(CCC(C)C)C2CCN(C(C)=O)CC2)c1 | -23.3
14 | O=C(CN(Cc1ccccc1)S(=O)(=O)c1ccc(F)cc1)NCc1cccnc1 | -57.8
15 | COc1ccc(-c2ncn(CCC#N)c2[N+](=O)[O-])cc1 | 0.491
16 | CC1=CS/C(=C(/C#N)C(=O)N2CCOCC2)N1c1ccccc1 | 9.62
17 | CC(C)(C)c1ccc(OCC(=O)NNC(=O)C2CCCO2)cc1 (centres unmarked) | 10.3
18 | O=C(NCc1ccco1)c1ccc2nccnc2c1 | -25.5
19 | Cc1ccc(S(=O)(=O)Nc2cccc(C(=O)N3CCN(c4ccccc4O)CC3)c2)cc1F | -31.4
20 | Cc1ccnc(SCCn2c(N(C)Cc3ccccc3)nc3c2c(=O)n(C)c(=O)n3C)n1 | -32.5
21 | Cc1cc(=O)n2nc(N3CCCC(C(=O)NCc4cccc(Cl)c4)C3)sc2n1 (centres unmarked) | -46
22 | C=CCN(c1ccccc1)S(=O)(=O)c1cccc(C(=O)OCC(=O)NCCOC)c1 | -15.8

Row | SMILES | hERG current change (%, negative = inhibition) at 10uM [%]
23 | CCSc1nc2c(c(=O)[nH]c(=O)n2C)n1CC(O)COc1ccccc1C (centres unmarked) | -20.8
24 | O=C(NCC12CC3CC(CC(C3)C1)C2)c1cc2n(n1)C(C(F)(F)F)CC(c1ccco1)N2 (centres unmarked) | -5.88
25 | Clc1ccc(-c2nc(C3CCCCC3)no2)cc1 | 10
26 | COc1ccc(C(=O)CN2C(=O)NC3(CCCc4ccccc43)C2=O)c(OC)c1 (centres unmarked) | 23.7
27 | N/C(=N\OC(=O)Cc1ccccc1)c1ccc([N+](=O)[O-])cc1 | 7.87
28 | COc1cc(C2=NOC(C(=O)Nc3ccc(C(C)=O)cc3)C2)cc(OC)c1OC (centres unmarked) | 12.6
29 | COc1ccccc1NC(=O)c1ccc(NC(=O)CN(C)Cc2ccccc2F)cc1 | -9.01
30 | CC(=O)OC1(c2ccccc2)CCN(C2CCCCC2)CC1C.Cl (centres unmarked) | -18.6
31 | CC(=O)c1ccc(C(=O)N2CCCC(C(=O)c3cc(F)ccc3F)C2)s1 (centres unmarked) | 2.88
32 | O=C(Nc1cccc(/C=C/c2nc3ccccc3c(=O)[nH]2)c1)c1ccccc1Cl | -5.58
33 | O=C(Nc1ccc(S(=O)(=O)N2CCCCC2)cc1)c1ccc(CN2CCc3ccccc3C2)cc1 | 8.76
34 | COc1ccc(C(=O)N2CCCC(Nc3ccc(F)c(F)c3)C2)c(OC)n1 (centres unmarked) | 4.09
35 | CCOC(=O)C1C(=O)Nc2nc3ccccc3n2C1C(C)C (centres unmarked) | -5.74
36 | COc1ccccc1N=c1oc2cc(O)ccc2cc1C(=O)NCC1CCCO1 (centres unmarked) | -1.66
37 | O=C(NCc1ccccc1)C1CCN(S(=O)(=O)N2CCOCC2)CC1 | -10.8
38 | CCOC(=O)c1ccc(N2C(=O)CC(N3CCC(O)(c4ccc(Cl)cc4)CC3)C2=O)cc1 (centres unmarked) | 4.12
39 | N#Cc1cc2c(nc1SCc1cccnc1)CCCCC2 | -14.1
40 | Nn1c(SCC(=O)Nc2ccc3c(c2)OCO3)nnc1-c1ccccc1 | -6.98
41 | Cn1c(NCCCN2CCOCC2)nc2c1c(=O)n(Cc1ccc(Cl)cc1)c(=O)n2C | -21.4
42 | CCC(=O)NC(=S)NNC(=O)c1ccc(O)cc1 | 16.7
43 | CC(Sc1nc2ccccc2c(=O)n1CC1CCCO1)C(=O)NC(C)c1ccccc1 (centres unmarked) | -5.01
44 | Nc1nonc1-n1nnc(C(=O)N/N=C/C=C/c2ccccc2)c1CSC1=NCCS1 | -14.1

Reference: paper PMC4336329 (PLoS ONE, 2015)
